Hit rate of the full screen: of about 310,000 compounds, about 2,200 (0.71%) showed an effect of 50% or more. The effect is printed as a negative number. Some of the results follow.
target: human ether-à-go-go-related gene (hERG) potassium channel (human, UniProt Q12809); experiment: primary screen, population patch clamp on CHO cells stably expressing hERG
Sequence (Q12809 whole entry, looked up): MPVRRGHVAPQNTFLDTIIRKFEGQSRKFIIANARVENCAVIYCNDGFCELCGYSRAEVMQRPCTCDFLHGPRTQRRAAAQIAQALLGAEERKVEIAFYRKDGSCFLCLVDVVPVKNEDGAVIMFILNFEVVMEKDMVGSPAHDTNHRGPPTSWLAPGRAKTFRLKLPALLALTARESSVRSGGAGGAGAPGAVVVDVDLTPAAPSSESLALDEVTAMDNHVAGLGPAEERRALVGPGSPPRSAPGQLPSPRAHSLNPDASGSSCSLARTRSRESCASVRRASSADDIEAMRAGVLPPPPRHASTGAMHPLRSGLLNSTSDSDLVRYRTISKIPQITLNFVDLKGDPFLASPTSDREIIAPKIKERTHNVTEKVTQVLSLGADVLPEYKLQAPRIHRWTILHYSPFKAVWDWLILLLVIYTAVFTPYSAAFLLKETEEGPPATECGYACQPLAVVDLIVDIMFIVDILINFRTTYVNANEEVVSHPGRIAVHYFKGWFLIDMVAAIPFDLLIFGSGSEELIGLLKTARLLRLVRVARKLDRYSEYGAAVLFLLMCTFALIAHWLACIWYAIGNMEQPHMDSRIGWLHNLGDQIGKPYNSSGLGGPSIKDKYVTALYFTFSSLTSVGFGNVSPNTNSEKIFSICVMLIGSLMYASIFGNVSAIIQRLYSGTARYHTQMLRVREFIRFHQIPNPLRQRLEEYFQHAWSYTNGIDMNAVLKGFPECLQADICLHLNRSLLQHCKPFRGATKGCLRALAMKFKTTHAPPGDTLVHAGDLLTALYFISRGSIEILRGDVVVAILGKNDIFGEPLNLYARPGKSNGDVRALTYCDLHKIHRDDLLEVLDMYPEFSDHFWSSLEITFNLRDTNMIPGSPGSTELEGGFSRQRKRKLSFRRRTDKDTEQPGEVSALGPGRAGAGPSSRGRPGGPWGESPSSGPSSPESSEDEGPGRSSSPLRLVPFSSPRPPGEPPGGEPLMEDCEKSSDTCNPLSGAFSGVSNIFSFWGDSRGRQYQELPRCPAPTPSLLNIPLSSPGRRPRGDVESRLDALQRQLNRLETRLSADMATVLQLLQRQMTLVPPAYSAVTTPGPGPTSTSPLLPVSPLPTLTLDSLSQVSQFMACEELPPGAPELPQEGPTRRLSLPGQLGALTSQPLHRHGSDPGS

| Compound | hERG current change (%, negative = inhibition) at 1uM |
| --- | --- |
| COc1ccc(CCn2c(NCCCN3CCOCC3)nc3c2c(=O)[nH]c(=O)n3C)cc1 | 7.24% |
| Cc1cccc(C(=O)NCCN(C)C)c1.Cl | -0.633% |
| O=C(NC(Cc1ccccc1)C(=O)O)OCc1ccccc1 (centres unmarked) | 8.76% |
| CCOC(=O)N1CCN(S(=O)(=O)c2cc([N+](=O)[O-])c(C)cc2C)CC1 | 1.12% |
| N#CC1=C(N)OC2=C(CC/C2=C\c2ccccc2)C1c1ccccc1 (centres unmarked) | 12% |
| Cc1ccnc(NC(=O)CCCOc2cc(=O)n(C)c3ccccc23)c1 | 11.2% |
| C=CCn1c(CNS(=O)(=O)c2ccc(Br)cc2)nnc1SC | 2.53% |
| Cc1nc2cc(NC(=O)Nc3cccc([N+](=O)[O-])c3)ccc2n1C | 12.8% |
| COc1ccc(-n2c(O)c(Cc3ccccc3)c(=O)n3nc(-c4ccccc4)c(=O)cc23)cc1 | 6.81% |
| Cc1cc(C)cc(N2C(=O)c3nccnc3C2=O)c1 | 9.67% |
| CC(C)N(C(=O)CSc1nnnn1C1CCCC1)C(C)C | 5.61% |
| O=C(NC1CCCCC1)C1CCCN1C(=O)NCc1ccccc1 (centres unmarked) | -3.68% |
| CC[n+]1c(/C=C2\C=C(C)CC(C)C2)sc2ccccc21.[I-] (centres unmarked) | 3.17% |
| O=C(Nc1nsc(-c2ccccc2)n1)c1ccc(F)cc1 | -22% |
| Cc1ccc(S(=O)(=O)N2CCN=C2SCc2ccccc2)cc1 | 2.54% |
| C=CCc1ccccc1OCC(O)CN1CCN(C(=O)OCC)CC1.Cl (centres unmarked) | 9.86% |
| Cc1cc(C(=O)CCC(=O)N(C)CC(=O)Nc2ccccc2Br)c(C)s1 | -1.36% |
| O=C(CN(Cc1ccco1)C(=O)c1ccc(N2CCCC2=O)cc1)Nc1ccccc1C(F)(F)F | -8.47% |
| N#CCCN(CCC#N)C(=O)c1ccc2c(c1)OCO2 | 6.47% |

| Compound | hERG current change (%, negative = inhibition) at 1uM |
| --- | --- |
| CNC(=O)c1cc2cc(Cc3ccccc3Cl)ccc2oc1=O | 5.24% |
| O=S(=O)(Cc1ccc(Cl)cc1)N1CCCC1 | -2.52% |
| Cc1ccc2cccc(OCc3ccc(Br)cc3)c2n1 | 10.2% |
| O=C(CS(=O)CC(=O)N(c1ccccc1)C(C(=O)NC1CCCCC1)c1ccco1)Nc1ccc(F)cc1 (centres unmarked) | 1.93% |
| CCCCn1c(O)c(N=NC(=O)c2ccncc2)c2cc(Br)ccc21 | -30.4% |
| Cc1csc2c(C#N)c(=O)c3c(n12)CCC3 | 12.6% |
| O=C(C1=C[C@H](c2ccc(C(F)(F)F)cc2)C[C@H](OCCCCO)O1)N1CCN(Cc2ccc3c(c2)OCO3)CC1 | -6.15% |
| Cc1cc(/C=C2\SC(=S)N(C)C2=O)c(C)n1-c1ccc(O)cc1 | 8.49% |
| Cc1cc(C)nc(SCC(=O)Nc2nccs2)n1 | 18.4% |
| CCOC(=O)CSC1=C(C#N)C(=O)NC2(CCCCC2)S1 | 12.2% |
| COc1ccccc1C(=O)N/C(=C/c1ccc(Br)cc1)C(=O)NCCCn1ccnc1 | -84.8% |
| O=C(NCc1cccnc1)C1CCCN(S(=O)(=O)c2ccc(Br)cc2)C1 (centres unmarked) | 1.65% |
| O=C(O)C(=O)Cc1c[nH]c2ccccc12 | 14.7% |
| COc1ccccc1N1C(=O)CC1(C#N)c1ccc(OCc2ccccc2)cc1 (centres unmarked) | 9.46% |
| COc1ccc(S(=O)(=O)NCCSC(C)(C)C)c(Cl)c1Cl | 2.25% |
| CN(c1ccccc1)S(=O)(=O)c1cc(C(=O)OCC(=O)N2CCN(C(=O)c3ccco3)CC2)ccc1Cl | -2.16% |
| O=C(NCc1ccccc1Cl)C1CCN(S(=O)(=O)N2CCCCC2)CC1 | 0.769% |
| CCn1nc(C)cc1C(=O)N1CCCC(CCC(=O)NCc2ccccc2F)C1 (centres unmarked) | 7.7% |
| Cc1cccc(C(=O)N(c2ccccn2)C(C)c2ccco2)c1 (centres unmarked) | -0.169% |

| Compound | hERG current change (%, negative = inhibition) at 1uM |
| --- | --- |
| CCOCCOC(=O)c1ccc(NC(=O)c2cc(OC)c(OC)c(OC)c2Br)cc1 | -0.647% |
| Cn1c(COc2ccc(Cl)cc2)nnc1SCC(=O)Nc1ccc2c(c1)CCC2 | 10.8% |
| CCOC(=O)N1CCN(S(=O)(=O)c2cc(Cl)ccc2Cl)CC1 | 5.43% |
| CC(/C=N/NC(=O)c1nnn(-c2nonc2N)c1C(C)C)=C\c1ccccc1 | 15.1% |
| CCCN1CCC(=O)N(CCSc2ccc(NC(C)=O)cc2)CC1 | 17% |
| CC(C)C[C@H]1C(=O)N2CCC[C@H]2[C@]2(O)O[C@](NC(=O)[C@@H]3C=C4c5cccc6[nH]cc(c56)C[C@H]4N(C)C3)(C(C)C)C(=O)N12 | 8.53% |
| COc1ccc(S(=O)(=O)NCC2CCCN(Cc3ccc(O)cc3)C2)cc1 (centres unmarked) | -12.2% |
| CCc1cc2ccc(OC)cc2nc1SCC(=O)Nc1cc(C)on1 | 2.85% |
| CCN1C(=O)N[C@@H](CCc2ccccc2)[C@H](C(C)=O)[C@H]1C | 7.01% |
| COCCOC(=O)c1nccnc1C(=O)Nc1ccc(S(=O)(=O)N2CCOCC2)cc1 | 5.8% |
| O=C(Nc1ccc(Cl)cn1)C1CC1 | 6.41% |
| CCCCn1c(N)c(N(CC(C)C)C(=O)CN(C)S(=O)(=O)c2ccc(NC(C)=O)cc2)c(=O)[nH]c1=O | 9.21% |
| COc1cc(/C=C/C(=O)OCC(=O)NC(=O)NC(C)(C)C)ccc1O | 9.37% |
| O=C(CCNC(=O)Cn1ccc2ccccc2c1=O)NCCCN1CCN(c2ccccc2F)CC1 | 12.1% |
| FC(F)(F)c1ccnc(NCc2ccc(Cl)cc2)n1 | 3.65% |
| CSc1ccc(CN2CCN(c3ccccc3C)CC2)cc1.O=C(O)C(=O)O | 6.25% |
| O=C(Nc1cc2c(cc1Cl)OCCCO2)c1ccco1 | 6.47% |
| O=C(CNc1ccccc1Cl)Nc1cc(S(=O)(=O)N2CCOCC2)ccc1Cl | 12.6% |
